Here are results for one molecule from paper PMC3798644, “Molecular Basis for Oligomeric-DNA Binding and Episome Maintenance by KSHV LANA” (PLoS Pathogens, 2013).

The assay has as its target T1, LANA C-terminal DNA binding domain (residues 1011-1153), wild type (Kaposi's sarcoma-associated herpesvirus …, UniProt Q76SB0 1011-1153).
T1 construct: source: E. coli, purified (Ni-NTA, tag cleaved with ULP1, second Ni-NTA, Superdex 75)
T1 sequence: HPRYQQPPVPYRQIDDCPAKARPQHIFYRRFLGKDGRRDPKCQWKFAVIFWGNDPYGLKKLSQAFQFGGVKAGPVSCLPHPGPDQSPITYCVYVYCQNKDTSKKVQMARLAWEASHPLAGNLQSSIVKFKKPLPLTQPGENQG
Briefly: pull-down; His-SMT3-BRD ET domain held on Ni-NTA resin; untagged LANADBD or EBNA1DBD added; 200 mM NaCl, 20 mM HEPES, 5 mM BME, pH 8.0; washed with 10 CV; eluted with 300 mM imidazole. As to conditions: both partners purified.

B1: His-SMT3-BRD4 ET domain, short form (BRD4 […]) (domain or fragment)
chain: not shown
notes: also called BRD4S
For B1, the binding result was “binds”.
